Laboratory results from the supplement of paper PMC6531468.
This is one part of the list. Values come from read counts of a selection and are noisy. Each score is taken over the longer molecules that contain the sequence shown.

biological target: IMP3 full-length (UniProt O00425); test: 6-mer SELEX enrichment z-score vs GST control; IMP3 is the RNA-binding protein IGF2BP3; higher = more enriched by binding; conditions: construct: FL IMP3 (1-579); SELEX round: R4
Method: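 SELEX-seq with GST-tagged full-length IMP3 and an N40 RNA pool, round 4. Each 6-mer is scored as an enrichment z-score of sequence tags containing it, normalised to the matching GST SELEX round. RNA written as DNA (T = U).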

Chain of UniProt O00425 (O00425 whole entry): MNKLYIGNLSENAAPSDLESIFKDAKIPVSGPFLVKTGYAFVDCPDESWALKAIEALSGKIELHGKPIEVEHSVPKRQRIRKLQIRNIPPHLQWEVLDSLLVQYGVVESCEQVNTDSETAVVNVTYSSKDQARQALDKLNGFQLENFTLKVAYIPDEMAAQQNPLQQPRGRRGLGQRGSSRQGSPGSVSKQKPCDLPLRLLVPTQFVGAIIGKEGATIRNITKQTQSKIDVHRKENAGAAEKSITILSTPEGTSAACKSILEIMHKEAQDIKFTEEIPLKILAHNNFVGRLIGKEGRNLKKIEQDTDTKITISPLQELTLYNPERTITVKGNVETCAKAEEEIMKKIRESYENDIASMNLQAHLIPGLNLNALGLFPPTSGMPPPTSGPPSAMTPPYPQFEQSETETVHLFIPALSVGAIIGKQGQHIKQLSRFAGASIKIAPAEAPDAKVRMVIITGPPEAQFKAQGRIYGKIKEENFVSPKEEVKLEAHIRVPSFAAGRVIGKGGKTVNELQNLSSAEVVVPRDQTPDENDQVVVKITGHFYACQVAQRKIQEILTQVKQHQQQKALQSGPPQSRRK

Sequence	6-mer SELEX enrichment z-score
CATTTT	0.878
AAGGCG	0.125
AGGGAT	0.169
GGAATC	-0.144
TGATAG	-0.142
AAATCC	-1.26
GGATCA	0.723
GATCTG	-0.073
ATACAG	1.5
CGGGGA	0.467
GAGCCA	0.013
CTGGTG	-0.103
GTCCAT	0.601
CCACTT	-0.076
AAGCCC	-1.66
ATAACT	-0.041
AGAAGA	-0.534
GCCTTC	0.031
GTCAAT	0.571
TATCCG	-0.343

tested on: IMP3 KH1-2; test: as above; conditions: construct: KH1-2 (164-376); SELEX round: R4
Method: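 SELEX-seq with GST-tagged IMP3 KH1-2 (Pro164-Phe376) and an N40 RNA pool, round 4 (stringent 300/600 mM KCl washes). 6-mer z-score of sequence-tag enrichment normalised to the corresponding GST SELEX round; RNA k-mers written as DNA (T for U).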

Chain of IMP3 KH1-2 (chain, as listed by the source): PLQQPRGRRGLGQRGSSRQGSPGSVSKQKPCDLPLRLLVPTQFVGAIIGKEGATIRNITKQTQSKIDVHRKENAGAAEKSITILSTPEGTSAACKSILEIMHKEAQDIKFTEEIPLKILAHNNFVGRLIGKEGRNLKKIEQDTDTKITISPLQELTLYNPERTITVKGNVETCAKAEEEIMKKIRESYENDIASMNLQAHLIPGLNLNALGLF

Sequence	6-mer SELEX enrichment z-score
ACCGCC	0.21
GACCTA	-1.15
CCATTT	0.764
ATGTAA	0.541
GCGAGT	-0.912
ACCCCA	-1.08
GGTTCA	0.143
GCCTGA	-0.828
GACGGC	0.514
TCTCCC	-0.133
CTAATT	0.725
ACCACT	0.194
GCTGAG	-0.634
GATTGT	0.156
CGCACT	0.437
TGCCAA	-0.804
TTTCAC	1.45
CGTACA	-0.568
GAATGC	-0.157
GGTTCG	0.032

Sequence	6-mer SELEX enrichment z-score
CATTTT	1.09
AAGGCG	-0.472
AGGGAT	0.612
GGAATC	-0.442
TGATAG	0.344
AAATCC	-0.231
GGATCA	0.225
GATCTG	-0.087
ATACAG	1.79
CGGGGA	0.842
GAGCCA	-1.09
CTGGTG	-0.161
GTCCAT	0.431
CCACTT	0.244
AAGCCC	-1.25
ATAACT	1.58
AGAAGA	0.625
GCCTTC	0.043
GTCAAT	0.166
TATCCG	-0.302

tested on: IMP3 KH3-4; test: as above; conditions: construct: KH3-4 (377-579); SELEX round: R4
Method: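 SELEX-seq with GST-tagged IMP3 KH3-4 (Pro377-Lys579) and an N40 RNA pool, round 4. 6-mer z-score of sequence-tag enrichment normalised to the corresponding GST SELEX round; RNA k-mers written as DNA (T for U).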

Chain of IMP3 KH3-4 (chain, as listed by the source): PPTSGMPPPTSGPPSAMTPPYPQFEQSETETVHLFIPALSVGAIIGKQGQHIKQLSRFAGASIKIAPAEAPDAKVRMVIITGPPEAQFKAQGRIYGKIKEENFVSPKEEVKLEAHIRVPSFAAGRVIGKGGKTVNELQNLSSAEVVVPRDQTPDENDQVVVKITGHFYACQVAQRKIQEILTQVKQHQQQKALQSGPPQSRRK

Sequence	6-mer SELEX enrichment z-score
ACCGCC	-1.03
GACCTA	-1.26
CCATTT	0.566
ATGTAA	1.46
GCGAGT	-0.833
ACCCCA	-2.06
GGTTCA	0.285
GCCTGA	-0.913
GACGGC	0.515
TCTCCC	-0.681
CTAATT	0.964
ACCACT	-0.337
GCTGAG	-0.568
GATTGT	0.476
CGCACT	0.024
TGCCAA	-1.04
TTTCAC	0.901
CGTACA	-0.803
GAATGC	0.007
GGTTCG	0.147

Sequence	6-mer SELEX enrichment z-score
CATTTT	1.15
AAGGCG	-0.148
AGGGAT	0.812
GGAATC	-0.445
TGATAG	0.81
AAATCC	-0.94
GGATCA	0.445
GATCTG	-0.053
ATACAG	1.79
CGGGGA	0.661
GAGCCA	-1.16
CTGGTG	-0.158
GTCCAT	0.344
CCACTT	-0.135
AAGCCC	-1.94
ATAACT	1.77
AGAAGA	1.47
GCCTTC	-0.236
GTCAAT	0.367
TATCCG	-0.499
